# B1: Ubv.Fw7.5 (designed binder)
# chain: MAHHHHHHVTSLYKKAGDYKDDDDKMQIFVKTGARTGITLEVEPSDTIENVKAKIQDKEGIPPDQQVLIFSRKRLEDGRTLSDYNIQKESTLRLVLVFGRR
# notes: Purified protein for ELISA
# B2: FLAG-Ubv.Fw7.5 monomer (designed binder)
# chain: MDYKDDDKGQGPDPSTNSADITSLYKKAGTMDYKDDDDKMQIFVKTGARTGITLEVEPSDTIENVKAKIQDKEGIPPDQQVLIFSRKRLEDGRTLSDYNIQKESTLRLVLVFGRR
# notes: Expressed in HEK293T cells
# B3: FLAG-Ubv.Fw11.2 monomer (designed binder)
# chain: MDYKDDDKGQGPDPSTNSADITSLYKKAGTMDYKDDDDKMQIFVKTYPYKYGTYHHNYTITLEVEPSDTIENVKAKIQDKEGIPPDQQVLIFSRKRLEDGRTLSDYNIQKESTLRLVLVFGRR
# notes: Expressed in HEK293T cells
# Legend:
# Skp1-F-box^Fbw7 complex = target: T1, Skp1-F-box^Fbw7 complex (human, UniProt P63208 1-163); experiment: competitive ELISA: Skp1-F-box^Fbw7 in solution (varied) blocks Ubv binding to the immobilised complex
# Sequence of Skp1-F-box^Fbw7 complex (P63208 other isoform, or with tags, fused parts or gaps limits assumed, chain 1 of 2): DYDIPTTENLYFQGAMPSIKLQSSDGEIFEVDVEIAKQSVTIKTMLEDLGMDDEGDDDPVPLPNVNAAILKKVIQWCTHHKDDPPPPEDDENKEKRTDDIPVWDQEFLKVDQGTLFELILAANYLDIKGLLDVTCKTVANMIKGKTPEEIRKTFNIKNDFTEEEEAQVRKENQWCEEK
# Sequence of Skp1-F-box^Fbw7 complex (chain, as listed by the source limits assumed, chain 2 of 2): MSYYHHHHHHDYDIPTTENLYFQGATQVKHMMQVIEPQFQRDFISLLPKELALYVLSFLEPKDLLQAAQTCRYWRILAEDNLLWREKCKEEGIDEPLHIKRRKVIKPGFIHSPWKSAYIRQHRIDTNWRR
# T1 construct: Full-length Skp1 in complex with the F-box domain; also called SKp1-Fbw7
# Skp1-F-box^Fbw2 complex = Skp1-F-box^Fbw2 complex (human, UniProt P63208 1-163); experiment: ELISA, Skp1-F-box domain complexes
# Sequence of Skp1-F-box^Fbw2 complex (P63208 other isoform, or with tags, fused parts or gaps limits assumed, chain 1 of 2): as the sequence (P63208 other isoform, or with tags, fused parts or gaps limits assumed, chain 1 of 2) above
# Sequence of Skp1-F-box^Fbw2 complex (chain, as listed by the source limits assumed, chain 2 of 2): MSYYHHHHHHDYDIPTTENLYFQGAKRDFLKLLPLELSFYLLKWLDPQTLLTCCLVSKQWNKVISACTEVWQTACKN
# HA-Fbw7 = target: T2, HA-Fbw7 (human, UniProt Q969H0 1-707); experiment: FLAG immunoprecipitation, HA western blot, HEK293T
# Sequence of HA-Fbw7 (Q969H0 other isoform, or with tags, fused parts or gaps limits assumed): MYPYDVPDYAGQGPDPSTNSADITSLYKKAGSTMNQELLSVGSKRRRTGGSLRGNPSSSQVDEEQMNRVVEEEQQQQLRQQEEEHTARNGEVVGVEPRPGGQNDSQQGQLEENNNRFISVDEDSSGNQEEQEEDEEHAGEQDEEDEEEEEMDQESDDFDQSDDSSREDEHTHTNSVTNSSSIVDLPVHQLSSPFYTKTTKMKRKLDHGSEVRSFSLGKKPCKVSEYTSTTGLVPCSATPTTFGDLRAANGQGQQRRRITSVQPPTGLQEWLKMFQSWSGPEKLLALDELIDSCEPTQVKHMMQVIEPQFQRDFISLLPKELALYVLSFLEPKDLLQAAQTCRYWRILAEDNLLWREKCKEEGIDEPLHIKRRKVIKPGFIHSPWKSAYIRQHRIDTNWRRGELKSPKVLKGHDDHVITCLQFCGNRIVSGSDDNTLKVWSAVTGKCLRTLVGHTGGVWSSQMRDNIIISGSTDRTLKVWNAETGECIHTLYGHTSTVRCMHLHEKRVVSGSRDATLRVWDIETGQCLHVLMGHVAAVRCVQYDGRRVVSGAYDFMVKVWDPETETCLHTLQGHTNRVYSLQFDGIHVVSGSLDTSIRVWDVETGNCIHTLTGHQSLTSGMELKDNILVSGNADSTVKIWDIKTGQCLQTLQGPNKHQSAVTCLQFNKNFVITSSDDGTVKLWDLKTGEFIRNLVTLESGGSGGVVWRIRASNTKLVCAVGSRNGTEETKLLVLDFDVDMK
# T2 construct: Exogenously expressed in HEK293T cells; also called Fbw7-HA
# SKP1 (Skp1), endogenous = target: T3, SKP1 (Skp1), endogenous (human, UniProt P63208 2-163); experiment: FLAG-IP MS, HEK293T
# Sequence of SKP1 (Skp1), endogenous (P63208 2-163 limits assumed): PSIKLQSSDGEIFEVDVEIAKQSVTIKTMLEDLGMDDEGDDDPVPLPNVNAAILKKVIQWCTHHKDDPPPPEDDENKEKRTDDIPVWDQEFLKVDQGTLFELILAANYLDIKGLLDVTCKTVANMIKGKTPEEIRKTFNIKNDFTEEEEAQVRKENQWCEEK
# T3 construct: also called P63208
Binder,IC50 (Skp1-F-box^Fbw7 complex) [nM],fold lower affinity than for Fbw7 (Skp1-F-box^Fbw2 complex) [fold],binding result (HA-Fbw7),"binding result (SKP1 (Skp1), endogenous)"
B1,45,8,–,–
B2,–,–,binds,binds
B3,–,–,–,binds
